Source: the antibiotic and cytotoxicity screens of Wong et al. (2023)
The list shows a part of the results.

system: HSkMC (human skeletal muscle cells); assay: cytotoxicity call (relative viability < 0.9); details: 10 µM

Compound | cytotoxicity call
COc1ccc(S(=O)(=O)Nc2ccc3c(c2)CC(=O)N([C@@H](C)CO)C[C@H](C)[C@@H](CN(C)CC2CC2)O3)cc1 | inactive
Cc1ccc(S(=O)(=O)Nc2ccc3c(c2)C(=O)N([C@@H](C)CO)C[C@@H](C)[C@@H](CN(C)Cc2ccc(Oc4ccccc4)cc2)O3)cc1 | active
C[C@H](CO)N1C[C@H](C)[C@@H](CN(C)Cc2ccc(C(=O)O)cc2)Oc2ccc(NC(=O)Nc3ccc(C(F)(F)F)cc3)cc2CC1=O | inactive
C[C@H](CO)N1C[C@H](C)[C@@H](CN(C)S(C)(=O)=O)OCCCC[C@H](C)Oc2ccc(NS(=O)(=O)c3ccc(F)cc3)cc2C1=O | inactive
C=CCNC(=O)[C@H]1[C@@H]2C(=O)O[C@@H](c3ccccc3)[C@@H](c3ccccc3)N2[C@@H](c2ccc(O)cc2)[C@]12C(=O)N(C(=O)OCCOC)c1ccc(C#Cc3ccc(OC)cc3)cc12 | inactive
C[C@@H]1CN([C@H](C)CO)C(=O)Cc2cc(NC(=O)Nc3cccc4ccccc34)ccc2O[C@H]1CN(C)Cc1ccc(Oc2ccccc2)cc1 | inactive
COc1ccc(NC(=O)N(C)C[C@@H]2Oc3ccc(NC(=O)C4CC4)cc3C(=O)N([C@H](C)CO)C[C@@H]2C)cc1 | inactive
CN1C(=O)c2cc(NC(=O)c3cccs3)ccc2OC[C@H]2O[C@@H](CC(=O)NCCN3CCCCC3)CC[C@H]21 | inactive
COc1ccc(S(=O)(=O)N(C)C[C@@H]2Oc3c(NC(=O)Nc4cccc5ccccc45)cccc3C(=O)N([C@@H](C)CO)C[C@@H]2C)cc1 | inactive
COc1ccc(S(=O)(=O)Nc2cccc3c2O[C@@H](CN(C)S(=O)(=O)c2ccc(F)cc2)[C@@H](C)CN([C@H](C)CO)C3=O)cc1 | inactive
